Values joined by “and” are separate entries in the source; they are usually repeats but may differ in a detail not shown here. Equal values may be shown once. Screen size: about 420,000 compounds; about 50,000 (12%) were called active. This list was built around the results that the source calls inconclusive (neither active nor inactive); the mix of calls is not that of the screen. The call rests on the fitted dose curve; in most records, active means well fitted inhibition curve with a large enough effect; inconclusive means small, poorly fitted or top-dose-only effect; inactive means flat fitted curve, though single readings scatter. Where the call is inconclusive, the potency comes from a doubtful curve fit.
assay: qHTS for Inhibitors of human tyrosyl-DNA phosphodiesterase 1 (TDP1): qHTS in cells in presence of CPT; conditions: chicken DT40 Tdp1-/-;hTDP1 cells + 20 nM CPT, ATP luminescence, 48 h; activity change, negative = growth inhibition: at 46.2 µM (top of the series); further: nearly all actives have a fitted effect of over 55% in size
Outline: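 Cell growth measured by CellTiter-Glo luminescence after a minimum 48 h, 37 C compound exposure with 20 nM CPT in Tdp1-knockout DT40 cells stably expressing hTDP1, seeded 400/well; qHTS titration format.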
On the % scale 0 is the no-effect control and ±100 the full control effect; potency means the concentration at half of the fitted maximal effect; tags describe the fitted curve by direction and shape.

SMILES | Potency | activity change, negative = growth inhibition
O=C1c2cccc3cc([N+](=O)[O-])cc(c23)C(=O)N1CC1CCCO1 (stereo not drawn) | active: 7.31 µM | –
CCN(CC)c1ccc(NC(=O)c2cncc(Br)c2)cc1 | inconclusive: 3.26 µM [inhibitor, partial curve, poor fit] | –
COC(=O)c1ccc(/C=C/c2c(-c3ccsc3)sc3ccccc23)cc1 | inconclusive: 29.1 µM [inhibitor, single point] | –
CC1CN(c2nc3c(c(=O)[nH]c(=O)n3C)n2Cc2ccccc2F)CC(C)O1 (stereo not drawn) | inactive | –
CCn1c(CN2CCC(C)CC2)nc2cc(NC(=O)COc3ccc([N+](=O)[O-])cc3)ccc21 | inactive | –
CC1=Nc2cc(C(=O)N3CCCC3)ccc2Sc2ccc(C)cc21 | inactive | –
COc1cc(C2CC(=O)Nc3c2c(=O)n(C)c(=O)n3C)cc(OC)c1OC (stereo not drawn) | inactive | –
O=C(NCc1ccc(Cl)c(Cl)c1)c1cc(C2CCCCN2C(=O)C2CCCCC2)on1 (stereo not drawn) | active: 16.4 µM | –
COc1ccc(CNC(=O)CSc2nnnn2C)cc1OC | inactive | –
O=C1C(Sc2cccc(F)c2)=C[C@@]2(O)CC[C@@H](O)[C@]1(Sc1cccc(F)c1)[C@H]2O | active: 16.4 µM | –
CCc1ccccc1N(CC(=O)N1CCN(c2ccc(F)cc2)CC1)S(C)(=O)=O | active: 14.6 µM | –
CCn1cc(C(=O)NCCC(C)C)c(=O)c2cc(F)c(N3CCN(C)CC3)cc21 | inconclusive: 29.1 µM [inhibitor, single point] | –
O=C(NC1CC1)C1=C[C@@H](c2c[nH]c3ccccc23)C[C@@H](OCc2ccc(CO)cc2)O1 | inconclusive: 29.1 µM [inhibitor, single point] | –
Cc1ccc(C)c(OCCC(=O)OCC(=O)Nc2cccnc2Cl)c1 | active: 14.6 µM | –
CC1(C(=O)Nc2ccc3nc[nH]c3c2)CCN1C(=O)c1ccccc1CCc1ccccc1 (stereo not drawn) | inconclusive: 18.4 µM [inhibitor, single point] | –
CCOC(=O)c1cccc(NC(=O)CCCn2c(C)c3cnn(-c4ccccc4)c(=O)c3c2C)c1 | active: 18.4 µM | –
C[C@@H]1CCC(=O)N(CC[C@H](Oc2ccccc2)c2ccccc2)CC1 | inconclusive: 35.5 µM [inhibitor, single point] and inconclusive: 29.1 µM [inhibitor, single point] | –
CC(=O)N1CCOc2ccc(S(=O)(=O)N3CCC(C(=O)Nc4ccc(C)cc4C)CC3)cc21 | inactive | –
C/C(=N\NC(=S)NC1CCCCC1)c1ccc(C#N)cc1 | inconclusive: 25.9 µM [inhibitor, single point] | –
Cc1ccc(NC(=O)c2cc3c(=O)[nH]c4ccccc4c3n2C)cc1F | inconclusive: 16.4 µM [inhibitor, single point] | –
COCCNC(=O)c1ccc(-c2cn[nH]c2)c2ccoc12 | – | inconclusive: -34.3% [inhibitor]
Cc1cc(C)c(C(=O)Cn2cnc3cc([N+](=O)[O-])ccc3c2=O)cc1C | inconclusive: 11.6 µM [inhibitor, partial curve] | –
CSc1nsc(NN)n1 | inactive | –
COc1ccc(-c2cc(C(C)=O)c(C)n2CCC(=O)NCc2ccc(F)cc2)cc1 | inconclusive: 18.4 µM [inhibitor, single point] | –
COc1ccccc1N1CCN(C(=O)CSc2nc(N)cc(=O)[nH]2)CC1 | inconclusive: 0.0411 µM [inhibitor, full curve, poor fit] | –

SMILES | Potency | activity change, negative = growth inhibition
CC(C)c1nnc(-c2ccc(Cl)cc2)c(N(C)C)n1 | – | inconclusive: -14% [inhibitor]
Cc1c(O)ccc(C(=O)CN2CCN(Cc3ccc4c(c3)OCO4)CC2)c1O | inconclusive: 29.1 µM [inhibitor, single point] | –
O=C1/C(=C/c2cccnc2)SC(=S)N1C1CCS(=O)(=O)C1 (stereo not drawn) | active: 10.3 µM | –
N#C/C(=C\N1CCN(Cc2ccc3c(c2)OCO3)CC1)c1nc2ccccc2s1 | inconclusive: 16.4 µM [inhibitor, single point] | –
CCN(CC)c1ccc(NC(=O)CCS(=O)(=O)c2ccc(Br)cc2)c(C)c1 | inconclusive: 25.9 µM [inhibitor, single point] | –
Cc1ccc(CNC(=O)CCC(=O)N2CC(C)Sc3ccccc32)cc1 (stereo not drawn) | inconclusive: 29.1 µM [inhibitor, single point] | –
Cc1ccccc1OCC(=O)NNC(=O)CSc1nc(N)cc(N)n1 | inconclusive: 23.1 µM [inhibitor, single point] | –
CCOC(=O)c1sc(NC(=O)CS(=O)(=O)c2ccc(C)cc2)nc1C | inconclusive: 20.6 µM [inhibitor, partial curve] | –
CCOC(=O)c1oc2ccccc2c1NC(=O)Cc1cccs1 | inactive | –
COc1ccc(CN2CCCC(C(=O)Nc3cccc(-n4cnnn4)c3)C2)c(C)c1C (stereo not drawn) | inconclusive: 29.1 µM [inhibitor, single point] | –
Cc1ccc(C)c(OCc2cc(C(=O)N3CCN(C4CCCCC4)CC3)no2)c1 | inconclusive: 29.1 µM [inhibitor, single point] | –
COC(=O)CNC(c1ccccc1)c1cc(Br)ccc1NC(=O)CCN1CCOCC1 (stereo not drawn) | active: 2.59 µM | –
CCN(CC)c1cc2c(cc1F)c(=O)c(S(=O)(=O)c1ccccc1)cn2Cc1ccccc1 | active: 14.6 µM | –
CCN(CC)C(=O)CSC1=C(C#N)C(c2cccs2)C=C(C)N1 (stereo not drawn) | inconclusive: 18.4 µM [inhibitor, single point] | –
COc1ccccc1Nc1ncnc2nc[nH]c12 | inactive | –
CCOC(=O)C1(C)CCCN(C(=O)c2cc(F)ccc2C)C1 (stereo not drawn) | inactive | –
CCNc1nc(NC(C)C)nc(NC(C)(C)C)n1 | inconclusive: 29.1 µM [inhibitor, single point] | –
CCOc1ccc2c(c1)c(N=O)c(O)n2C | inactive | –
Cc1cc(NCCN2CCOCC2)n2nc(C)c(-c3ccccc3)c2n1 | inactive | –
Cc1cc(S(=O)(=O)NCC(C)C)ccc1OCC(=O)NC1CC1 | inactive | –
CC(=O)c1cccc(NS(=O)(=O)c2c(C)nc3sc(C)cn3c2=O)c1 | active: 18.4 µM | –
Cc1ccc(S(=O)(=O)CCC(=O)OCC(=O)c2cc(C)ccc2C)cc1 | inactive | –
OCCOCCNc1ncnc2sc(-c3ccccc3)cc12 | inconclusive: 11.2 µM [inhibitor, partial curve] | –
S=c1nc2ccccc2c2nc(-c3ccccc3)[nH]n12 | active: 20.6 µM | –
Cc1nc2ccccn2c1C(=O)/C=C/c1ccc(F)cc1 | inconclusive: 23.1 µM [inhibitor, single point] | –

SMILES | Potency | activity change, negative = growth inhibition
O=[N+]([O-])c1cccc(CSc2nnc(Cc3ccccc3)n2-c2ccc(F)cc2)c1 | active: 18.4 µM | –
CCC(C)N1C(=O)CCC1C(=O)N1CCN(c2ccccc2F)CC1 (stereo not drawn) | inactive | –
CCOC(=O)c1c(S(=O)(=O)NCC(=O)N2CCN(c3ccccc3OC)CC2)c(C)n(C)c1C | inconclusive: 14.6 µM [inhibitor, partial curve] | –
CC1CCN(CC2C(=O)O[C@@H]3C[C@@]4(C)CCC[C@H](C)C4=C[C@H]23)CC(C)(C)C1 (stereo partly drawn) | inconclusive: 29.1 µM [inhibitor, single point] | –
Cc1ccc(Nc2nc(COC(=O)C3CC3)cs2)cc1 | inconclusive: 25.9 µM [inhibitor, single point] | –
CCCCC(=O)Oc1ccccc1C(=O)O | inactive | –
CC(C)CC(=O)NC(=S)N1CCN(c2ccc([N+](=O)[O-])cc2Cl)CC1 | inconclusive: 29.1 µM [inhibitor, single point] | –
CCOC(=O)C1CN(Cc2ccccc2)C(=O)C1=O (stereo not drawn) | inactive | –
Cc1cccc(C(=O)NC(=S)Nc2c(C)n(C)n(-c3ccccc3)c2=O)c1 | inactive | –
CCCN=C1N/C(=C\c2ccco2)C(=O)N1c1ccccc1 | inconclusive: 29.1 µM [inhibitor, single point] | –
CC1(c2ccc(Cl)cc2Cl)NC(=O)N(CC(=O)Nc2ccc3[nH]c(=O)[nH]c3c2)C1=O (stereo not drawn) | inactive | –
O=c1c(-c2cccs2)nc2cncnc2n1Cc1ccccc1 | inactive | –
C/C(=N/Nc1nc(C)cc(-c2ccccc2)n1)c1ccco1 | active: 20.6 µM | –
CCCn1nc(NS(=O)(=O)c2ccc(F)cc2)c2cc3ccccc3nc21 | inactive | –
COc1cc(-c2cc(NC(C)=O)c3ncc(-c4cc(OC)c(OC)c(OC)c4)n3c2)cc(OC)c1OC | active: 8.2 µM | –
COC(=O)c1ccccc1NC(=O)N1CCN(c2ccccc2)CC1 | inconclusive: 18.4 µM [inhibitor, single point] | –
COC(=O)c1ccc(Cn2c(SCc3cccc(C)c3)nc3ccncc32)cc1 | inconclusive: 20.6 µM [inhibitor, single point] | –
COc1ccccc1-c1nn(CCC(=O)Nc2cccc(C(C)=O)c2)c2nc(C)cc(C)c12 | inconclusive: 23.1 µM [inhibitor, single point] | –
CC(=O)Nc1ccc(NC(=O)CN(c2cccc([N+](=O)[O-])c2)S(C)(=O)=O)cc1 | inconclusive: 16.4 µM [inhibitor, single point] | –
Cc1cc(C)c2[nH]c(=O)c(C(c3nnnn3CC3CCCO3)N3CCC(C)CC3)cc2c1 (stereo not drawn) | inconclusive: 29.1 µM [inhibitor, single point] | –
CC(C)C[C@H](NC(=O)Nc1ccccc1F)C(=O)O | inactive | –
COc1ccc(S(=O)(=O)N(CC(=O)N2CCC(C)CC2)c2ccc(C)cc2)cc1 | inconclusive: 20.6 µM [inhibitor, single point] | –
COc1cccc(N(C(=O)Cn2nnc(-c3ccc(F)cc3)n2)C(C(=O)NCC2CCCO2)c2ccc(Cl)cc2)c1 (stereo not drawn) | inconclusive: 18.4 µM [inhibitor, single point] | –

— PubChem BioAssay AID686979 (National Center for Advancing Translational Sciences (NCATS), 2013)
